Data on 31 sequences can be found in paper PMC12820563, “FoxP3 forms a head-to-head dimer in vivo and stabilizes its multimerization on adjacent microsatellites”.

The other results are listed elsewhere or left out.

In the test the target is T1, MBP-FoxP1dN (Mus musculus, UniProt P58462 326-579).
T1 sequence: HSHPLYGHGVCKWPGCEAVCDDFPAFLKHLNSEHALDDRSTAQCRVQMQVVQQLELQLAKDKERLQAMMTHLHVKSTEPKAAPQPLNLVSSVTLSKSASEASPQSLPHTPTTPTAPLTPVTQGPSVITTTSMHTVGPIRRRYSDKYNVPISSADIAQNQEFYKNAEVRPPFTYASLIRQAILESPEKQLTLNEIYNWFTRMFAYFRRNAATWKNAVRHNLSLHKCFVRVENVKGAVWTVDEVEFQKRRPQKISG
The test can be described thus: PD-seq (MBP pull-down with sequencing); 20 mM Tris-HCl pH 7.5, 100 mM NaCl, 1.5 mM MgCl2, 0.4 uM protein, 0.1 uM dsDNA library, 30 min, room temperature, amylose pull-down; high values mean tight binding. Conditions: protein: recombinant; tags: His6-MBP; chain copies: 2; dsDNA, one strand shown. In outline: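 Binding is the reads-per-million enrichment of pull-down relative to input, pooled across replicates. For this, 0.4 µM His6-MBP-tagged mouse FoxP3 or FoxP1 fragment lacking the N-terminus, made in E. coli, was incubated with 0.1 µM Klenow-filled double-stranded degenerate DNA library for 30 min at room temperature in Tris pH 7.5 buffer with NaCl and MgCl2. Complexes bound to amylose resin were washed three times before proteinase K released the DNA for PCR barcoding and Illumina sequencing.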
Regarding “GATGATTGTTCTCCCAGCTGATGAATTGCCCTGATCGAGTAAACAAATTTTCCTAATCTTTCTGTTCAAGCGCCATCTAC”, the binding signal is 0.914 RPM ratio (pull-down/input). Consider “GATGATTGTTCTCCCAGCTGATGAATTAGGCCGTTCGAGTAAACAAATTTTCCTAATCTTTCTGTTCAAGCGCCATCTAC”, for which the binding signal is 0.901 RPM ratio (pull-down/input). Under “GATGATTGTTCTCCCAGCTGATGAATTTGCAAGGTCGAGTAAACAAATTTTCCTAATCTTTCTGTTCAAGCGCCATCTAC” stands 0.889 RPM ratio (pull-down/input); under “GATGATTGTTCTCCCAGCTGATGAATTTAACGATTCGAGTAAACAAATTTTCCTAATCTTTCTGTTCAAGCGCCATCTAC”, 0.937 RPM ratio (pull-down/input); under “GATGATTGTTCTCCCAGCTGATGAATTGAGGGATTCGAGTAAACAAATTTTCCTAATCTTTCTGTTCAAGCGCCATCTAC”, 0.896 RPM ratio (pull-down/input). With “GATGATTGTTCTCCCAGCTGATGAATTGCAATGCTCGAGTAAACAAATTTTCCTAATCTTTCTGTTCAAGCGCCATCTAC” the figure was 1.32 RPM ratio (pull-down/input). Under “GATGATTGTTCTCCCAGCTGATGAATTAGAACATTCGAGTAAACAAATTTTCCTAATCTTTCTGTTCAAGCGCCATCTAC” stands 0.956 RPM ratio (pull-down/input). In the case of “GATGATTGTTCTCCCAGCTGATGAATTTATTAGCTCGAGTAAACAAATTTTCCTAATCTTTCTGTTCAAGCGCCATCTAC”, the binding signal was 1.19 RPM ratio (pull-down/input). Under “GATGATTGTTCTCCCAGCTGATGAATTACACCCATCGAGTAAACAAATTTTCCTAATCTTTCTGTTCAAGCGCCATCTAC” stands 1.21 RPM ratio (pull-down/input). With “GATGATTGTTCTCCCAGCTGATGAATTCTGAGAGTCGAGTAAACAAATTTTCCTAATCTTTCTGTTCAAGCGCCATCTAC” the figure was 0.785 RPM ratio (pull-down/input). With “GATGATTGTTCTCCCAGCTGATGAATTGAGCCTTTCGAGTAAACAAATTTTCCTAATCTTTCTGTTCAAGCGCCATCTAC” the figure was 0.873 RPM ratio (pull-down/input). Take “GATGATTGTTCTCCCAGCTGATGAATTGACAATATCGAGTAAACAAATTTTCCTAATCTTTCTGTTCAAGCGCCATCTAC”: the binding signal was 1.86 RPM ratio (pull-down/input). With “GATGATTGTTCTCCCAGCTGATGAATTCGCACATTCGAGTAAACAAATTTTCCTAATCTTTCTGTTCAAGCGCCATCTAC” the figure was 0.901 RPM ratio (pull-down/input); with “GATGATTGTTCTCCCAGCTGATGAATTAACATAGTCGAGTAAACAAATTTTCCTAATCTTTCTGTTCAAGCGCCATCTAC”, 0.985 RPM ratio (pull-down/input); with “GATGATTGTTCTCCCAGCTGATGAATTAGGATGATCGAGTAAACAAATTTTCCTAATCTTTCTGTTCAAGCGCCATCTAC”, 0.916 RPM ratio (pull-down/input). With “GATGATTGTTCTCCCAGCTGATGAATTATACTCCTCGAGTAAACAAATTTTCCTAATCTTTCTGTTCAAGCGCCATCTAC” the figure was 0.867 RPM ratio (pull-down/input); with “GATGATTGTTCTCCCAGCTGATGAATTTACCGGTTCGAGTAAACAAATTTTCCTAATCTTTCTGTTCAAGCGCCATCTAC”, 1.12 RPM ratio (pull-down/input); with “GATGATTGTTCTCCCAGCTGATGAATTACCCTCCTCGAGTAAACAAATTTTCCTAATCTTTCTGTTCAAGCGCCATCTAC”, 0.807 RPM ratio (pull-down/input). With “GATGATTGTTCTCCCAGCTGATGAATTGGCTAGTTCGAGTAAACAAATTTTCCTAATCTTTCTGTTCAAGCGCCATCTAC” the figure was 0.845 RPM ratio (pull-down/input); with “GATGATTGTTCTCCCAGCTGATGAATTTCTGGGCTCGAGTAAACAAATTTTCCTAATCTTTCTGTTCAAGCGCCATCTAC”, 0.755 RPM ratio (pull-down/input).

In the case of “GATGATTGTTCTCCCAGCTGATGAATTGGCTCTGTCGAGTAAACAAATTTTCCTAATCTTTCTGTTCAAGCGCCATCTAC”, the binding signal was 0.831 RPM ratio (pull-down/input). As to “GATGATTGTTCTCCCAGCTGATGAATTGCCTGACTCGAGTAAACAAATTTTCCTAATCTTTCTGTTCAAGCGCCATCTAC”, the binding signal is 0.893 RPM ratio (pull-down/input). With “GATGATTGTTCTCCCAGCTGATGAATTTCATTAATCGAGTAAACAAATTTTCCTAATCTTTCTGTTCAAGCGCCATCTAC”, the binding signal is 1.01 RPM ratio (pull-down/input). With “GATGATTGTTCTCCCAGCTGATGAATTAGTCGAATCGAGTAAACAAATTTTCCTAATCTTTCTGTTCAAGCGCCATCTAC” the figure was 0.946 RPM ratio (pull-down/input); with “GATGATTGTTCTCCCAGCTGATGAATTCGAATTATCGAGTAAACAAATTTTCCTAATCTTTCTGTTCAAGCGCCATCTAC”, 0.96 RPM ratio (pull-down/input); with “GATGATTGTTCTCCCAGCTGATGAATTAGAGCCTTCGAGTAAACAAATTTTCCTAATCTTTCTGTTCAAGCGCCATCTAC”, 0.903 RPM ratio (pull-down/input). With “GATGATTGTTCTCCCAGCTGATGAATTGTGCCTCTCGAGTAAACAAATTTTCCTAATCTTTCTGTTCAAGCGCCATCTAC” the figure was 1.11 RPM ratio (pull-down/input); with “GATGATTGTTCTCCCAGCTGATGAATTACGTCTCTCGAGTAAACAAATTTTCCTAATCTTTCTGTTCAAGCGCCATCTAC”, 0.944 RPM ratio (pull-down/input); with “GATGATTGTTCTCCCAGCTGATGAATTAGGGTTCTCGAGTAAACAAATTTTCCTAATCTTTCTGTTCAAGCGCCATCTAC”, 0.852 RPM ratio (pull-down/input). Under “GATGATTGTTCTCCCAGCTGATGAATTCCAGAGCTCGAGTAAACAAATTTTCCTAATCTTTCTGTTCAAGCGCCATCTAC” stands 0.742 RPM ratio (pull-down/input); under “GATGATTGTTCTCCCAGCTGATGAATTGCCAATCTCGAGTAAACAAATTTTCCTAATCTTTCTGTTCAAGCGCCATCTAC”, 1.01 RPM ratio (pull-down/input).
